Measured values from the supplement of paper PMC10369915.
The other results are listed elsewhere or left out. No stated cut-off is given here; in the data, active = 3.2 or more and inactive = the rest. Most of these values are background signal.

Columns and labels:
Test in all cases: enrichment score (SH2-bound / input frequency) (ratio); bacterial display of known human phosphotyrosine sites (pTyr-Var adds point mutants) read by sequencing; higher = stronger binding; tyrosines were phosphorylated by kinases first
Settings in all cases: peptide library: pTyr-Var
SHP2 C-SH2 domain E139D = target: SHP2 C-SH2 domain E139D
[1] = target: SHP2 C-SH2 domain wild-type
SHP2 N-SH2 domain L43F = target: SHP2 N-SH2 domain L43F
SHP2 N-SH2 domain T42A = target: SHP2 N-SH2 domain T42A
SHP2 N-SH2 domain T52S = target: SHP2 N-SH2 domain T52S
[2] = target: SHP2 N-SH2 domain wild-type

Measured: enrichment score
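Further: displayed peptides selected on beads carrying the immobilized SH2 domain, with library peptides lacking any tyrosine serving as negative controls.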

IFRAAYFGVFD [SLC25A4_Y191_YF]
inactive: SHP2 C-SH2 domain E139D 1.21 | [1] 1.26 | SHP2 N-SH2 domain L43F 1.03 | SHP2 N-SH2 domain T42A 0.964 | SHP2 N-SH2 domain T52S 1.18 | [2] 0.987

TQFWRYFAGNL [SLC25A5_Y112_L111R]
inactive: SHP2 C-SH2 domain E139D 0.677 | [1] 0.681 | SHP2 N-SH2 domain L43F 0.666 | SHP2 N-SH2 domain T42A 0.703 | SHP2 N-SH2 domain T52S 0.681 | [2] 0.874

NNKKDYFDMFE [SLC26A3_Y526_K521N_YF]
inactive: SHP2 C-SH2 domain E139D 0.651 | [1] 0.742 | SHP2 N-SH2 domain L43F 0.681 | SHP2 N-SH2 domain T42A 0.654 | SHP2 N-SH2 domain T52S 0.752 | [2] 0.692

LRNRVYEVPVE [SLC26A3_Y756]
inactive: SHP2 C-SH2 domain E139D 0.581 | [1] 0.718 | SHP2 N-SH2 domain L43F 0.802 | SHP2 N-SH2 domain T42A 0.678 | SHP2 N-SH2 domain T52S 0.606 | [2] 0.689

LRSRVYEVPVE [SLC26A3_Y756_N753S]
inactive: SHP2 C-SH2 domain E139D 0.589 | [1] 0.584 | SHP2 N-SH2 domain L43F 0.764 | SHP2 N-SH2 domain T42A 0.691 | SHP2 N-SH2 domain T52S 0.805 | [2] 0.694

LLRFLYFFVCS [SLC34A2_Y109_G106R]
inactive: SHP2 N-SH2 domain L43F 2.92 | SHP2 N-SH2 domain T42A 2.33 | SHP2 N-SH2 domain T52S 2.98 | [2] 2.72
active: SHP2 C-SH2 domain E139D 3.64 | [1] 3.57

SAPDSYIRIGN [SLC38A4_Y27_G29R]
inactive: SHP2 C-SH2 domain E139D 0.786 | [1] 0.609 | SHP2 N-SH2 domain L43F 0.772 | SHP2 N-SH2 domain T42A 0.679 | SHP2 N-SH2 domain T52S 0.752 | [2] 0.613

RGVTHYILQTF [SLC39A4_Y359]
active: SHP2 C-SH2 domain E139D 3.32 | [1] 3.26 | SHP2 N-SH2 domain L43F 3.84
inactive: SHP2 N-SH2 domain T42A 3.1 | SHP2 N-SH2 domain T52S 2.57 | [2] 3.19

ELQDDYEDMME [SLC4A1_Y8]
inactive: SHP2 C-SH2 domain E139D 0.527 | [1] 0.457 | SHP2 N-SH2 domain L43F 0.461 | SHP2 N-SH2 domain T42A 0.563 | SHP2 N-SH2 domain T52S 0.412 | [2] 0.474

YPPTHYIRRVP [SLC4A11_Y820]
inactive: SHP2 C-SH2 domain E139D 0.389 | [1] 0.365 | SHP2 N-SH2 domain L43F 0.412 | SHP2 N-SH2 domain T42A 0.364 | SHP2 N-SH2 domain T52S 0.341 | [2] 0.33

LHQSTYQRFDV [SLC7A14_Y693_YF]
inactive: SHP2 C-SH2 domain E139D 0.826 | [1] 0.799 | SHP2 N-SH2 domain L43F 0.934 | SHP2 N-SH2 domain T42A 0.881 | SHP2 N-SH2 domain T52S 0.829 | [2] 1.06

VDSIEYEVASQ [SLC7A7_Y7_T5I]
inactive: SHP2 C-SH2 domain E139D 0.709 | [1] 0.557 | SHP2 N-SH2 domain L43F 0.547 | SHP2 N-SH2 domain T42A 0.522 | SHP2 N-SH2 domain T52S 0.531 | [2] 0.687

ELAINYQEQAS [SLC9A9_Y591]
inactive: SHP2 C-SH2 domain E139D 0.513 | [1] 0.62 | SHP2 N-SH2 domain L43F 0.71 | SHP2 N-SH2 domain T42A 0.576 | SHP2 N-SH2 domain T52S 0.559 | [2] 0.849

ELAVNYQEQAS [SLC9A9_Y591_I589V]
inactive: SHP2 C-SH2 domain E139D 0.947 | [1] 0.809 | SHP2 N-SH2 domain L43F 0.817 | SHP2 N-SH2 domain T42A 0.6 | SHP2 N-SH2 domain T52S 0.755 | [2] 0.846

YIILIYAMKKK [SLCO1B1_Y645]
inactive: SHP2 C-SH2 domain E139D 2.01 | [1] 1.62 | SHP2 N-SH2 domain L43F 1.38 | SHP2 N-SH2 domain T42A 2.01 | SHP2 N-SH2 domain T52S 2.19 | [2] 1.2

YIIFIYAMKKK [SLCO1B1_Y645_L643F]
inactive: SHP2 C-SH2 domain E139D 1.92 | [1] 1.22 | SHP2 N-SH2 domain L43F 1.36 | SHP2 N-SH2 domain T42A 1.16 | SHP2 N-SH2 domain T52S 1.75 | [2] 1.11

THEVRYISAGQ [SLCO4A1_Y77_V78I]
inactive: SHP2 C-SH2 domain E139D 0.666 | [1] 0.813 | SHP2 N-SH2 domain L43F 0.731 | SHP2 N-SH2 domain T42A 0.704 | SHP2 N-SH2 domain T52S 0.654 | [2] 0.959

FPHVIYARLWR [SMAD4_Y95]
inactive: SHP2 C-SH2 domain E139D 0.289 | [1] 0.291 | SHP2 N-SH2 domain L43F 0.301 | SHP2 N-SH2 domain T42A 0.399 | SHP2 N-SH2 domain T52S 0.227 | [2] 0.271

KPLMPCMRYSR [SMARCE1_Y73_Y73C]
inactive: SHP2 C-SH2 domain E139D 0.26 | [1] 0.232 | SHP2 N-SH2 domain L43F 0.174 | SHP2 N-SH2 domain T42A 0.237 | SHP2 N-SH2 domain T52S 0.288 | [2] 0.231
